Hit rate of the full screen: of about 310,000 compounds, about 14,000 (4.5%) showed an effect of 50% or more. Effects have a minus sign here. The list shows a part of the results.
Target: human ether-à-go-go-related gene (hERG) potassium channel (human, UniProt Q12809)
Assay: primary screen, population patch clamp on CHO cells stably expressing hERG
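Further: peak tail current of the secondary pulse compared with the same well before compound.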

Sequence of human ether-à-go-go-related gene (hERG) potassium channel (Q12809 whole entry, looked up): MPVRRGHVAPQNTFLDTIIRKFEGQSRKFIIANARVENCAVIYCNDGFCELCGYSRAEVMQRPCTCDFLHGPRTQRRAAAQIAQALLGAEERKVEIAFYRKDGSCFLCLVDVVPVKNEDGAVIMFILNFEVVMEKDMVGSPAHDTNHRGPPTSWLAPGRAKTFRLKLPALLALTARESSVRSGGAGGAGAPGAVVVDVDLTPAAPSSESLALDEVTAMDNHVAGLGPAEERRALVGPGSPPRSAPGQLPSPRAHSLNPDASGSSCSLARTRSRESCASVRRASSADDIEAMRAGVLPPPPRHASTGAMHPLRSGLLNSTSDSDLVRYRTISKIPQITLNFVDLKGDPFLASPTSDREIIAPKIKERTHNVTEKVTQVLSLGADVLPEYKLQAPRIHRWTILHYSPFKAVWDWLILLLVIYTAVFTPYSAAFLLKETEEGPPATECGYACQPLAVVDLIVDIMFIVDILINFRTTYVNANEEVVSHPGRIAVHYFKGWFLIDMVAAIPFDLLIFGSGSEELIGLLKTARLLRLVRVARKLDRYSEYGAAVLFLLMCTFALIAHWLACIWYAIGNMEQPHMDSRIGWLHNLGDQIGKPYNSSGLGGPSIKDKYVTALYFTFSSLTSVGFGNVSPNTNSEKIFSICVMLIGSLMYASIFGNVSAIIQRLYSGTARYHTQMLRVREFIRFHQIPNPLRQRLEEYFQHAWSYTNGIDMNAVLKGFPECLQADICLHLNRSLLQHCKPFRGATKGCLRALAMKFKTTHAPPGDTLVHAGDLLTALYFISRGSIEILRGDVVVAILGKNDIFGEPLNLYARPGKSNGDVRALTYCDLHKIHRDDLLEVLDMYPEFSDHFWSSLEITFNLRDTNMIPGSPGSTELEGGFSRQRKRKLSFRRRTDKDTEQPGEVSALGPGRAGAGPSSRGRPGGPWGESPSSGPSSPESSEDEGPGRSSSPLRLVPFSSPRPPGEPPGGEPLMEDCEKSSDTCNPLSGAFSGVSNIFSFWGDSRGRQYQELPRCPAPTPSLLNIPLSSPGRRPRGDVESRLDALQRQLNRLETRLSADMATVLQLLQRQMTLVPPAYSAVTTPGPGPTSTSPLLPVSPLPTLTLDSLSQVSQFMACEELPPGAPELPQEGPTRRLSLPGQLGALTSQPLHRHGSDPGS

Row | Compound | hERG current change (%, negative = inhibition) at 10uM
1 | O=C(N/N=C/c1ccncc1)c1cnccn1 | 2.67%
2 | Cc1ccc2nc(N3CCN(C)CC3)c(C#N)cc2c1 | -42.3%
3 | CCOc1ccc(C(=O)CN2CCN(S(=O)(=O)c3ccc(OC)cc3)CC2)cc1 | -61.7%
4 | Cn1c(=O)cc(SCC(=O)N2CCCC2)c2ccccc21 | 15.2%
5 | Cc1cccc(OP(=O)(Oc2cccc(C)c2)OC(c2ccccc2)C(F)(F)F)c1 (stereo not drawn) | 0.253%
6 | CCN(CC)S(=O)(=O)c1ccc(N2CCCCC2)c(NC(=O)C2CCN(C(=O)c3ccc(F)cc3)CC2)c1 | -9.33%
7 | O=C(c1ccccc1)C1CCN(C(=O)c2ccc(Cl)cc2)CC1 | -46.5%
8 | Cc1cccc(NC(=O)c2ccccc2SCc2ccc(F)cc2)n1 | 5.58%
9 | CC1CCN(S(=O)(=O)Cc2ccccc2Cl)CC1 | 2.27%
10 | Cc1ccc(-n2c(=O)cc(N3CCN(Cc4ccccc4)CC3)[nH]c2=O)cc1 | 2.26%
11 | CN1CCN(NC(=O)c2ccc(Cl)c(S(=O)(=O)Nc3ccc(Cl)cc3)c2)CC1.Cl | -7.08%
12 | CC(=O)c1ccc(OC(C)C)c(CN2CCCCC2)c1.Cl | 0.071%
13 | CCN1CCc2c(sc(NC(=O)c3ccc(S(=O)(=O)N4CC(C)OC(C)C4)cc3)c2C(N)=O)C1 (stereo not drawn) | -54.5%
14 | COc1ccc(CN2CCN(C(=O)c3ccc(F)cc3)CC2)c(OC)c1.O=C(O)C(=O)O | -44.3%
15 | COc1ccccc1-c1ccc(=O)n(CC(=O)NCc2ccco2)n1 | -10.1%
16 | Cc1ccccc1CN1C(=O)[C@H]2Cc3c([nH]c4ccccc34)C(C)(C)N2C1=O | 14%
17 | CNC(=S)N1CCc2cc(OC)c(OC)cc2C1COc1ccc(OC)cc1 (stereo not drawn) | -7.03%
18 | COc1ccc2c(c1)c(C(=O)CN1CCOCC1)c(C)n2C | -6.42%
19 | COc1ccc(Cl)cc1N1C(=NC(=O)C2CCCO2)SC2CS(=O)(=O)CC21 (stereo not drawn) | -41.3%
20 | CCOc1ccc(C)cc1-n1nc2ccccc2n1 | -1.41%
21 | O=C(CSCC(=O)NC1CCCC1)Nc1ccccc1 | 4.17%
22 | CCN1C(=NCc2ccccc2)N[C@@H](c2ccccc2)[C@H](C(=O)OC)[C@H]1C | 2.51%
23 | Cc1cc(N2CCN(C)CC2)nc2ccc(NC(=O)CCC(=O)NCCC(C)C)cc12 | 13.8%
24 | Cc1cc(C)cc(NC(=O)COC(=O)c2cc(=O)[nH]c(=O)[nH]2)c1 | 6.61%
25 | COc1cc(-c2nc3ccc(C)cn3c2NCc2ccccc2)ccc1SC1CCCCC1.O=C(O)C(F)(F)F | 10.2%
26 | CCOC(=O)c1c(C)[nH]c(C(=O)C(C)OC(=O)c2cnc(C)cn2)c1C (stereo not drawn) | -0.804%
27 | Cc1ncoc1C(=O)N1CCCC(CCC(=O)NCc2ccccc2F)C1 (stereo not drawn) | -6.93%

Row | Compound | hERG current change (%, negative = inhibition) at 10uM
28 | Cc1cnc(-c2nnc(N(C)C(=O)C3CCOC3)s2)cn1 (stereo not drawn) | -0.297%
29 | CN(C)S(=O)(=O)c1ccc(NC(=O)COC(=O)c2n[nH]c3ccccc23)cc1 | -0.665%
30 | C/C(=N\NC(=S)NC(C)C)c1cccc([N+](=O)[O-])c1 | -42.6%
31 | O=C(COC(=O)c1cccnc1Cl)Nc1cccc(S(=O)(=O)N2CCCCC2)c1 | -13.5%
32 | CCCCNC(=O)C1CCN(C(=O)C2CCN(S(=O)(=O)c3ccc(C)cc3)CC2)CC1 | -16.9%
33 | CCN(CC)CCN(C(=O)c1ccc2c(c1)OCCO2)c1nc2ccc(C)cc2s1.Cl | -71.2%
34 | COCC(=O)NCCSc1c(C)[nH]c2ccccc12 | 4.37%
35 | O=S(=O)(c1ccc(Cl)cc1)N1CCN(c2ncccn2)CC1 | 28.4%
36 | Cc1c(N=c2scc(-c3ccccc3)n2C)c(=O)n(-c2ccccc2)n1C | -7.61%
37 | CC1CN(C(=O)/C(C#N)=C2\N=C(NC(=O)c3ccc(F)cc3)c3ccccc32)CC(C)O1 (stereo not drawn) | 14.1%
38 | CCCNC(=S)N1CC2(C)CN(C(=O)C(=O)OCC)CC(C)(C1)C2=O | 4.15%
39 | COC(=O)[C@H](Cc1ccccc1)NC(=O)Cn1ccc(NC(=O)OCc2ccccc2)nc1=O | -23.5%
40 | CCOc1ccc(S(=O)(=O)NCCC(=O)NC2CCN(Cc3ccccc3)CC2)cc1 | -21.8%
41 | Cc1csc(NC(=O)CSc2nnc(-c3ccncc3)n2C)n1 | -17.5%
42 | COCCC(C(=O)Oc1c(C(C)(C)C)cc(C)cc1C(C)(C)C)c1ccccc1 (stereo not drawn) | 18.5%
43 | CN(NC(=O)c1cccc(Cl)c1)c1nc(-c2ccccc2)nnc1C(F)(F)F | 9.44%
44 | COc1ccc(/C=C(/NC(=O)c2ccco2)C(=O)Nc2ccc(C(C)=O)cc2)cc1 | 16.5%
45 | COc1cccc2cc(C(=O)CS(=O)(=O)c3ccc(Cl)cc3)c(=O)oc12 | -0.205%
46 | Cl.OC(CN1C2=NCCCN2c2ccccc21)c1ccc2c(c1)OCO2 (stereo not drawn) | -70.2%
47 | CC1(C)CC(=O)C2=C(C1)NC(SCC(=O)Nc1ccccc1)=C(C#N)C2c1ccco1 (stereo not drawn) | -5.44%
48 | CCn1ncc(C2C(C(=O)Nc3ccc(C)cn3)=C(C)NC3=C2C(=O)CCC3)c1C (stereo not drawn) | 7.67%
49 | CC(C)NC(=O)CSc1nnc(-c2ccncc2)n1-c1ccccc1 | 11.6%
50 | COc1cccc(N/C(SCc2cccc([N+](=O)[O-])c2)=C(/C#N)C(N)=O)c1 | -19.9%
51 | Cc1ccc(C(=O)Nc2cc(Cl)ccc2N2CCCCC2)s1 | 13.3%
52 | CC1=C(C(=O)OCc2ccccc2)C(c2ccc(Cl)cc2Cl)NC(=O)N1CCCCCC(=O)O (stereo not drawn) | -16.2%
53 | COc1ccc(Cc2c(N)nc(N)nc2N)cc1 | 12.7%
54 | O=C(N/N=C/c1ccco1)c1ccc(OCc2ccccc2)cc1 | 10.9%

Source: PMC4336329 (PLoS ONE, 2015)
